# Test results from paper PMC11995724, “Antibiotic target discovery by integrated phenotypic and activity-based profiling of electrophilic fragments” (Cell chemical biology, 2025).
# About 110 (3.4%) of roughly 3,200 compounds showed an effect of 50% or more. This is one part of the list.
# Test system: T1, V. cholerae SAD30
# T1 construct: SAD30
# Parameters: species or system S. aureus MSSA476 (TSB) or V. cholerae SAD30 (LB); 384-well bacterial growth screen at 25 uM, OD600 relative to DMSO control
# Settings: relative growth, OD600, LB; 25 µM; inhibitor
row,Structure (SMILES),% of control remaining [%]
1,"C=CC(=O)NCC1CS(=O)(=O)c2ccccc2O1 (centres unmarked) [3-N17, N-[(4,4-dioxo-2,3-dihydro-1,4lambda6-benzoxathiin-2-yl)methyl]prop-2-enamide]",95.7949
2,"N#CC(=Cc1ccccc1OCc1ccccc1)C(=O)NC(N)=O [8-F05, (2-{[2-(benzyloxy)phenyl]methylidene}-2-cyanoacetyl)urea]",82.053
3,"C=CC(=O)N(C)CC(=O)N1CCC(c2nc3c(s2)CCCC3)CC1 [2-N04, N-methyl-N-{2-oxo-2-[4-(4,5,6,7-tetrahydro-1,3-benzothiazol-2-yl)piperidin-1-yl]ethyl}prop-2-enamide]",91.8942
4,"C=CC(=O)NC1(c2ccccc2)CCCC1 [1-O15, N-(1-phenylcyclopentyl)prop-2-enamide]",88.7892
5,"CC(=Cc1ccccc1)C=C(C#N)C(=O)Nc1ccc2c(c1)OCCO2 [9-J07, 2-cyano-N-(2,3-dihydro-1,4-benzodioxin-6-yl)-4-methyl-5-phenylpenta-2,4-dienamide]",90.6186
6,"N#CC(=Cc1ccc(C#N)cc1)C(=O)Nc1ccc(F)c(Cl)c1 [9-A22, N-(3-chloro-4-fluorophenyl)-2-cyano-3-(4-cyanophenyl)prop-2-enamide]",91.8423
7,"C=CC(=O)NCCCN1CCCS1(=O)=O [3-H19, N-[3-(1,1-dioxo-1lambda6,2-thiazolidin-2-yl)propyl]prop-2-enamide]",89.796
8,"Cn1c(N)c(N2C(=O)C=CC2=O)c(=O)[nH]c1=O [10-P05, 6-amino-5-(2,5-dioxo-2,5-dihydro-1H-pyrrol-1-yl)-1-methyl-1,2,3,4-tetrahydropyrimidine-2,4-dione]",104.422
9,"C=CC(=O)NCc1ccc(N2CC(C)CS2(=O)=O)cc1 (centres unmarked) [3-J19, N-{[4-(4-methyl-1,1-dioxo-1lambda6,2-thiazolidin-2-yl)phenyl]methyl}prop-2-enamide]",89.4431
10,"O=C(NCc1ccco1)C1CCCN1C(=O)CCl (centres unmarked) [5-N05, 1-(2-chloroacetyl)-N-[(furan-2-yl)methyl]pyrrolidine-2-carboxamide]",104.403
11,"C=CC(=O)N(C)CC(=O)NC1CCCN(c2ccc(F)cc2F)C1=O (centres unmarked) [2-P22, N-({[1-(2,4-difluorophenyl)-2-oxopiperidin-3-yl]carbamoyl}methyl)-N-methylprop-2-enamide]",101.004
12,"C=CC(=O)NC(c1ccc(C)cc1)C(C)S(C)(=O)=O (centres unmarked) [2-A10, N-[2-methanesulfonyl-1-(4-methylphenyl)propyl]prop-2-enamide]",94.3646
13,"CNC(=O)c1cc(C(=O)CCl)cn1C [10-G10, 4-(2-chloroacetyl)-N,1-dimethyl-1H-pyrrole-2-carboxamide]",98.6558
14,"COCc1ncc2c(n1)CC1CCC2N1C(=O)C(C)Cl (centres unmarked) [7-M20, 2-chloro-1-[5-(methoxymethyl)-4,6,12-triazatricyclo[7.2.1.0,2,7]dodeca-2,4,6-trien-12-yl]propan-1-one]",81.4142
15,"CNC(=O)c1ccc(C2CCCCN2C(=O)C(C)Cl)n1C (centres unmarked) [7-N15, 5-[1-(2-chloropropanoyl)piperidin-2-yl]-N,1-dimethyl-1H-pyrrole-2-carboxamide]",80.0925
16,"CC(Cl)C(=O)Nc1sc2c(c1C#N)CCCCC2 (centres unmarked) [5-B20, 2-chloro-N-{3-cyano-4H,5H,6H,7H,8H-cyclohepta[b]thiophen-2-yl}propanamide]",96.8372
17,"C=CC(=O)N(CC)CC(=O)N1CC[S+]([O-])C(C)(C)CC1 (centres unmarked) [3-K21, N-[2-(7,7-dimethyl-1-oxo-1lambda4,4-thiazepan-4-yl)-2-oxoethyl]-N-ethylprop-2-enamide]",96.3242
18,"C=CC(=O)N1CCC(Cc2nc(C3CCC3)no2)CC1 [2-A06, 1-{4-[(3-cyclobutyl-1,2,4-oxadiazol-5-yl)methyl]piperidin-1-yl}prop-2-en-1-one]",98.0701
19,"CC(Cl)C(=O)Nc1sccc1C(N)=O (centres unmarked) [5-C21, 2-(2-chloropropanamido)thiophene-3-carboxamide]",107.429
20,"C=CC(=O)NCc1cc(C(F)(F)F)on1 [3-F20, N-{[5-(trifluoromethyl)-1,2-oxazol-3-yl]methyl}prop-2-enamide]",95.0891
21,"C=CC(=O)N1CCC(C(=O)NCc2cc(C)c[nH]c2=O)CC1 [3-H03, N-[(5-methyl-2-oxo-1,2-dihydropyridin-3-yl)methyl]-1-(prop-2-enoyl)piperidine-4-carboxamide]",105.852
22,"COc1ccc(C=C(C#N)C(=O)NC2CCCCC2)cc1O [8-H13, 2-cyano-N-cyclohexyl-3-(3-hydroxy-4-methoxyphenyl)prop-2-enamide]",79.3338

row,Structure (SMILES),% of control remaining [%]
1,"C=CC(=O)N1CCOC(CNC(=O)NC)C1 (centres unmarked) [3-A18, 3-methyl-1-{[4-(prop-2-enoyl)morpholin-2-yl]methyl}urea]",118.732
2,"CC(Cl)C(=O)NCCC1=CCCCCC1 (centres unmarked) [5-N19, 2-chloro-N-[2-(cyclohept-1-en-1-yl)ethyl]propanamide]",88.2631
3,"C=CC(=O)NCC(F)(F)C1(OC)CCC1 [3-L07, N-[2,2-difluoro-2-(1-methoxycyclobutyl)ethyl]prop-2-enamide]",91.9133
4,"Cc1nn(CC(C)C)c(Cl)c1C1CCCN1C(=O)C(C)Cl (centres unmarked) [7-P19, 2-chloro-1-{2-[5-chloro-3-methyl-1-(2-methylpropyl)-1H-pyrazol-4-yl]pyrrolidin-1-yl}propan-1-one]",86.04
5,"CC(Cl)C(=O)NC(=O)Nc1ccccc1 (centres unmarked) [5-I21, 3-(2-chloropropanoyl)-1-phenylurea]",104.066
6,"C=CCNC(=O)C(C#N)=Cc1cccc2ccccc12 [9-L10, 2-cyano-3-(naphthalen-1-yl)-N-(prop-2-en-1-yl)prop-2-enamide]",88.3073
7,"C=CC(=O)N1CCC(C(=O)NC[C@H]2C[C@@H](O)C2)(c2ccccc2)CC1 [3-O04, 4-phenyl-1-(prop-2-enoyl)-N-{[(1s,3s)-3-hydroxycyclobutyl]methyl}piperidine-4-carboxamide]",105.852
8,"CCCc1ccc(C(=O)CCl)cc1 [10-C04, 2-chloro-1-(4-propylphenyl)ethan-1-one]",109.254
9,"N#CC(=Cc1ccc2c(c1)OCO2)C(=O)NCc1ccccc1 [8-A09, 3-(1,3-dioxaindan-5-yl)-N-benzyl-2-cyanoprop-2-enamide]",89.395
10,"CN(C)C(=O)c1csc(C(=O)CCl)c1 [10-I07, 5-(2-chloroacetyl)-N,N-dimethylthiophene-3-carboxamide]",105.981
11,"Cc1cc(C=C(C#N)C(=O)NCc2ccco2)cc(C)c1O [8-J16, 2-cyano-N-[(furan-2-yl)methyl]-3-(4-hydroxy-3,5-dimethylphenyl)prop-2-enamide]",66.5534
12,"N#Cc1nc(-c2ccco2)oc1N1CCN(C(=O)CCl)CC1 [4-B22, 5-[4-(2-chloroacetyl)piperazin-1-yl]-2-(furan-2-yl)-1,3-oxazole-4-carbonitrile]",116.11
13,"CC1CCCCC1OCCNC(=O)CCl (centres unmarked) [6-O06, 2-chloro-N-{2-[(2-methylcyclohexyl)oxy]ethyl}acetamide]",94.189
14,"C=CC(=O)NCc1cccc(OC)n1 [1-H22, N-[(6-methoxypyridin-2-yl)methyl]prop-2-enamide]",111.629
15,"C=CC(=O)NC[C@H]1CCCN1S(C)(=O)=O [1-H07, N-{[(2R)-1-methanesulfonylpyrrolidin-2-yl]methyl}prop-2-enamide]",87.7429
16,"Cc1ccc(SCCNC(=O)CCl)cc1 [4-K21, 2-chloro-N-{2-[(4-methylphenyl)sulfanyl]ethyl}acetamide]",111.279
17,"C=CC(=O)N1CCC(C(=O)Nc2cnn(COC)c2)CC1 [2-H10, N-[1-(methoxymethyl)-1H-pyrazol-4-yl]-1-(prop-2-enoyl)piperidine-4-carboxamide]",88.1887
18,"CC(Cl)C(=O)Nc1cc(Cl)cc(Cl)c1 (centres unmarked) [4-D17, 2-chloro-N-(3,5-dichlorophenyl)propanamide]",56.0707
19,"C=CC(=O)N1CCC(C(=O)N(C)Cc2ccc([S+](C)[O-])cc2)CC1 (centres unmarked) [2-D06, N-[(4-methanesulfinylphenyl)methyl]-N-methyl-1-(prop-2-enoyl)piperidine-4-carboxamide]",92.0486
20,"CC(NC(=O)CCl)c1nc2c(s1)CCCCC2 (centres unmarked) [7-M22, 2-chloro-N-(1-{4H,5H,6H,7H,8H-cyclohepta[d][1,3]thiazol-2-yl}ethyl)acetamide]",92.1196
21,"Cc1cc(CNC(=O)C(C#N)=Cc2ccco2)ccc1N(C)C [9-N09, 2-cyano-N-{[4-(dimethylamino)-3-methylphenyl]methyl}-3-(furan-2-yl)prop-2-enamide]",72.8076
22,"C=CC(=O)N1CCC(Cc2nccs2)C1 (centres unmarked) [3-O16, 1-{3-[(1,3-thiazol-2-yl)methyl]pyrrolidin-1-yl}prop-2-en-1-one]",102.147
